Data as given in the supplement of paper PMC11417369.
The list shows a part of the results.

These sequences were tested on PfHDP1 homeodomain (GST-tagged) (assay: gcPBM binding intensity (ln(normalized median fluorescence intensity)); higher = stronger DNA binding).
Procedure, shortened: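 Binding of GST-tagged P. falciparum DNA-binding domains, expressed in E. coli and used at about 25 μg on average, was carried out for 1 h in 1× PBS containing 1% milk, 0.2 mg/ml BSA, 0.5% salmon testes DNA and 0.03% Triton X-100. The target was an Agilent 4 × 180k array of primer-extended double-stranded 36-bp intergenic genomic probes plus negative controls, read with Alexa488 anti-GST antibody at 488 nm. Binding intensity is the highest Masliner-normalised natural-log median intensity across replicate spots of either probe orientation.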

In order of falling “gcPBM binding intensity (ln)” value:
1. CCTTATACGATATTATGTACGCATATGTGCATTTTT [XGTACX_site1570]  10.9
2. GGCATATATATATGCACACATACATATATACATGTG [CACACA_site3859]  10.4
3. GTTAATCACCATGTGGTGCATATAAGGGCATATTAT [GTGCAC_site9748]  10.3
4. TATATTTACTTATATGCACACATAAATGTGAATTAT [CACACA_site9258]  9.85
5. AATATAGGAATATGCACACATATATACATACATACA [CACACA_site1521]  9.82
6. ATGTTATTAATAATTGCACACATTTTTTTTTTTTTT [CACACA_site3920]  9.71
7. AAAAAAATAAAATATATATATATATATATATATATA [GTGCAC_negctrl_site706]  9.58
8. ACATATAATAAAATAGTGCATTGTTAGTTTTATATA  9
9. CTTAAAATATATTTAGTGCATATACTAATATATTAT  8.9
10. ATATATATATATTTATGTACATATTATTTATTCTTT [XGTACX_site6567]  8.83
11. TATATATATATATTATGTACATATAAATATATTTTT [XGTACX_site1509]  8.8
12. TATATATATATATTATGTACATATATAAATTAACAT [XGTACX_site3368]  8.65
13. ATATATATATAAATATGTACATATTTATATATGAAT [XGTACX_site3220]  8.6
14. ATTATTTGATTAAAGGTGCAAGGATAATAATAAAAC  8.28
15. AATTAATAAAAAAGGTGTACAGTAAATGCAATAATC [XGTACX_site7956]  8.08
16. AATATATATATGTGTACACATCCAAAATAGGCATAC [CACACA_site5705]  7.59
17. ATATTATACGCATATGTGCGCATACATTTTTTTGCA [GTGCAC_site9540]  7.53
18. TTTTTGTAACCGATTCTGCACTGAGAAGCACATATA  7.23
19. TACACATACAGACATACACACATACCCATATACTCA [CACACA_site5037]  7.11
20. TAACATAGCAATGTTTCACACACAAGAAAAAATACA [CACACA_site8747]  6.99
21. AAAGGAAAAGTTGACTGTACATAAGTAAAAAATAAT [XGTACX_site788]  6.93
22. ATTCATTCCATACTTTAACACACAAATATATTTAAT [CACACA_site7930]  6.91
23. TCTTTTATATATAATAATTATATATAACATTCAAAC [GTGCAC_negctrl_site112]  6.81
24. TTTATACAAATATGTACACACTAAATATATATTATG [CACACA_site4413]  6.77
25. TATATATGGATATATACACACAACGGTTATAAATAT [CACACA_site6655]  6.73
26. AGATTGTAAGTAAACACACACACATATATATGTATA [CACACA_site675]  6.67
27. AAGAAAAATACTACGTGTACCAAACTTCCTACCAAC [XGTACX_site1426]  6.67
28. TATTATATAATATACTGTACAATATCCATTATTTAC [XGTACX_site7091]  6.6
29. ATGTAGAATTGTAAATGTACATGAAACACATATTCA [XGTACX_site3436]  6.57
30. ATAAATTCATACATTTGTACACAAAAAAAAAAAAAA [XGTACX_site2435]  6.56
31. GAAATTACTTTATAAACACACATTTATTTTATTTTA [CACACA_site7007]  6.55
32. TATGAAAAAAAAAAAAAAAAAAAAAAAAAAAAAAAA [XGTACX_negctrl_site587]  6.55
33. ATCTATATTATAATAACACACATATATTATAGTATA [CACACA_site6330]  6.53
34. CTCACATATATATATAGTACAATTTTTTTTTTTTTT [XGTACX_site5999]  6.41
35. TGCAGTCTGGAGAAAAGTACATAGTATCTGGTAGCT [XGTACX_site2547]  6.4
36. TCATATTTATATAAATGTACTTAATTGGTTTCTTTA [XGTACX_site7848]  6.38
37. AAAAAAAAAAAAAACACACAGAAATATATATATATT [CACACA_site832]  6.37
38. TGTAAATATAAAAGATAATGATAAAAGGGACATTTT [CACACA_negctrl_site661]  6.37
39. TAATGGTATAAAAAATGTACATGTTTTTTTACAATT [XGTACX_site4285]  6.26
40. ATTTGTAATTTATTCAAACACACAATTTGGACCTTT [CACACA_site1062]  6.19
41. ATATATGTATATATTTGTACATATAATATTTTTTAA [XGTACX_site6345]  6.11
42. TTATTTACAAAACAAATCAAAATATCCAAAAGAATA [CACACA_negctrl_site1789]  6.01
43. TTTTTTAAAGTTTAAAGTACATATAAAAATATATAA [XGTACX_site5267]  5.94
44. TAATTAAGCATAAATATAATTTTATATTTTATTTCC [XGTACX_negctrl_site321]  5.89
